Measurements taken from article PMC12136788.
The list shows a part of the results.

T1: UNK ZnF1-3 (human, UniProt Q9C0B0 31-174)
T1 sequence: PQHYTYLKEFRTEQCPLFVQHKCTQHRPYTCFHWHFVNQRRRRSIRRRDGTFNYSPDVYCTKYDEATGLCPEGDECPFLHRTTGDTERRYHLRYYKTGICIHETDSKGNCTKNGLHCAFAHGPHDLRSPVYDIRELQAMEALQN

B1: chr17:6086338:6086339:+_ENSMUSG00000034345_ENSMUST00000039487|mus_mus|FALSE|FALSE (ssRNA)
RNA: GGGAGUUCUACAGUCCGACGAUCUGACUGAAAUAUAAAAUCCAGUAGUGCUCCAAUACAGCUAGAGUGUCCAUAAAAAUCUAUCUUCUACUUAAUUCUUAGUAUCAGGUGUGUAAGUAACAAUCCACUGGAAAGUUUACAUUACAACAGAGGAUUGAGCAUCA
B2: chr9:96327448:96327449:+_ENSG00000048828_ENST00000277165|hu_hu|motif|central (ssRNA)
RNA: GGGAGUUCUACAGUCCGACGAUCAGUCACGAAAGUUUCAGAACACAUUGUGUUGAUUUUGAAAGGUCAUUUGCAUCUUCGGUGAUUUCAACUUUAUCUCCAUUUAACUUGCUUGUAAAGUAUGUAUGAUGUAUUGUAUAUUUACAACAGAGGAUUGAGCAUCA
B3: chr1:59768832:59768833:+_ENSMUSG00000026020_ENSMUST00000027174|mus_mus|FALSE|FALSE (ssRNA)
RNA: GGGAGUUCUACAGUCCGACGAUCCAUACUGACUCACAACCAUCCAGGUUAAACAAUGGAUUCUUUUGAACUCCACAGACUAAGGUGUAUAAGCAGUACACAUAUACACAUGCAAGAAAAACAAGAGACACAUAGACACACAUGCAACAGAGGAUUGAGCAUCA
B4: 56291633_56292106_645_CDS_ENSG00000011143_ENST00000393119|human|control|control (ssRNA)
RNA: GGGAGUUCUACAGUCCGACGAUCCAGGUCUGCCAUGAUGUGCAUUGUCUGAAGAGGGGUGUUAAUGACGUGGUUGUUCCUGACAAACUCUUCUGAGGGCUCCCAGGUGACGAUGCGUGACUUGAGGAUGCCGCCCUCCAUCCCCAACAGAGGAUUGAGCAUCA
B5: chr1:174983830:174983831:-_ENSG00000120333_ENST00000367677|hu_mus|FALSE|FALSE (ssRNA)
RNA: GGGAGUUCUACAGUCCGACGAUCUUCUGAAAUGGUUUUACCAUAUCGCUCGCUGGACUCCAGAAAGUAGCCCGUGGUCAGCUAAGUGGCGGAAGACAAUGCGACUAAGUCUCCAGCGACGCUUAACACCACGUGGGCGAGAUGCAACAGAGGAUUGAGCAUCA
B6: chr6:160200703:160200704:-_ENSG00000120438_ENST00000392168|hu_hu|motif|central (ssRNA)
RNA: GGGAGUUCUACAGUCCGACGAUCAUGAAAAGCUCUUAAUUUUGCAACCAGAUCUGUGGAGUCCUGGGCAGCAUUAACUGCGGGUGUAUUGGGAAUAACAAGAAGUGAUCUUGCAAACUCUGCAAUCGCAAGCUGUUCCCGAGACAACAGAGGAUUGAGCAUCA
B7: chr3:160143891:160143892:+_ENSG00000113810_ENST00000344722|hu_hu|FALSE|FALSE (ssRNA)
RNA: GGGAGUUCUACAGUCCGACGAUCAGCAAGUACAUUAGCUUCAAGUUCCUUAACUUGGACAUUCAAAUAUUCUUCUUGCUCUAUUAAACGCUGGAUGCUUGCAGUAAAUUUUUCUAGUGUGUUCCUCAUUUCUCGUUCACUAUGCAACAGAGGAUUGAGCAUCA
B8: chr15:42481402:42481403:-_ENSG00000166887_ENST00000318006|hu_mus|FALSE|FALSE (ssRNA)
RNA: GGGAGUUCUACAGUCCGACGAUCCUUUGAGACUGUAGUGAUUUGUUGAAAUGUCAGUAAGUCAUGGACAUAAAUGUUGUUUUCUAACAAGCUGACCAGAAUCUUAAACUGGGAAACCACAUGGAUCUGCUGGAUCUUUUUGGACAACAGAGGAUUGAGCAUCA
B9: chr1:6238667:6238668:+_ENSMUSG00000025907_ENSMUST00000027040|mus_hu|motif|central (ssRNA)
RNA: GGGAGUUCUACAGUCCGACGAUCCAUCAUUUCUGGGCUUUGUGGAUCACUUAUAGGAUUAGGAGACGACAAAUUUUCUUCGGUUACAAACUCAUUCACAGCAGACAUAAAAUCUGAUUCAGGACUUUCUGCUAAUGAAUCCAACAACAGAGGAUUGAGCAUCA
B10: 173274441_173274561_334_CDS_ENSMUSG00000013997_ENSMUST00000111295|mouse|control|control (ssRNA)
RNA: GGGAGUUCUACAGUCCGACGAUCCAAAAGAUCCCCAUUCAGUGGUUCGGACAGGAGUAAUGUCUCGGCAGGGUUUCGUGCAAUAAAGUCAAAUGCCUCAGGCAGAAAGGCCAGGCAAGCACCCAGUCUGGCAGCCUCUUGAACCAACAGAGGAUUGAGCAUCA
B11: chr13:36129161:36129162:+_ENSG00000172915_ENST00000537702|hu_mus|FALSE|FALSE (ssRNA)
RNA: GGGAGUUCUACAGUCCGACGAUCCAAAUACUCAAAGUUGGAGAUUUCCCUUCUUUGCCAGCGCUGAGUCAUAUUGGAAGACUUAUACAGCUGUCGAGGAGUGGCCAGUGAUAUCCUCCUGGCUUGUGGCAAACCAUAGCUGGUCAACAGAGGAUUGAGCAUCA
B12: 4322100_4322220_140_5pUTR_ENSMUSG00000026657_ENSMUST00000075767|mouse|control|control (ssRNA)
RNA: GGGAGUUCUACAGUCCGACGAUCCAGGGAUUGAGCGCGGGCCCGCUGGAGGGGCCUCCUUUCGCCACUGGAUCCCAGGACAACAAUGAGAUCUUCUGCCUCCCUAGCGCCCAAUCCGGCCAAGGACACCCCAAGUCACCCCCCCAACAGAGGAUUGAGCAUCA
B13: chr7:10978501:10978502:-_ENSG00000189043_ENST00000339600|hu_mus|FALSE|FALSE (ssRNA)
RNA: GGGAGUUCUACAGUCCGACGAUCAUUAAACAGUGCCAAGCGCAUCACAUACAGUGCUGCUCCAGUACCCCCUGCUCCAAUAAAUACGAAGAGAGGAAUCAAGCUGGGAUGCUUCUUGGCUUGCCCGAGGAUCUGGCGGAGCAUCAACAGAGGAUUGAGCAUCA
B14: chr4:25749455:25749456:-_ENSG00000091490_ENST00000264868|hu_hu|hu_hu_hu_mus_False|18_28 (ssRNA)
RNA: GGGAGUUCUACAGUCCGACGAUCGCACUAUGACCUCUAGAAAAAUCCACAGGGGGAAAAAAUGUAAACCAAUGUACAAUGUUAUCGCCUUCCCUGUGUGUGGAGUGACAAACAAUUUAUUUCAAGGAGCUGCUGGAUUUGGGACAACAGAGGAUUGAGCAUCA

Target: T1, UNK ZnF1-3
Experiment: nsRBNS (natural sequence RNA bind-n-seq); RBNS binding buffer (assumed for nsRBNS): 25 mM Tris pH 7.5, 150 mM KCl, 3 mM MgCl2, 0.01% Triton X-100, 500 ug/ml BSA, 20 U/ml SUPERase-In, 4 C; UNK is unkempt and MSI1 is Musashi-1; names of the RNAs are library labels; protein concentration not given here; high values mean tight binding

Row | Binder | binding signal [enrichment R]
1 | B1 | 0.833
2 | B2 | 0.519
3 | B3 | 1.18
4 | B4 | 0.691
5 | B5 | 0.464
6 | B6 | 0.947
7 | B7 | 0.92
8 | B8 | 0.492
9 | B9 | 1.35
10 | B10 | 1.02
11 | B11 | 0.899
12 | B12 | 1.8
13 | B13 | 0.937
14 | B14 | 1.93
